Data reported in publication PMC10726135.
The list shows a part of the results. At the low end of the ranking, values are background and their order means little. The protein was read in a cell extract, so binding may be indirect.

The sequences below were run against T1, HNF4alpha2 (COS-7 nuclear extract) (UniProt P41235) (assay: protein-binding microarray). Details: COS-7 nuclear extract on double-stranded Agilent 4x180k PBM; binding buffer, salt, pH and temperature not given; high values mean tight binding; double strand, one strand shown; sequences stand for … in …GCCTAGGGAGATTAGAGTATCGGTCGA.
T1 sequence: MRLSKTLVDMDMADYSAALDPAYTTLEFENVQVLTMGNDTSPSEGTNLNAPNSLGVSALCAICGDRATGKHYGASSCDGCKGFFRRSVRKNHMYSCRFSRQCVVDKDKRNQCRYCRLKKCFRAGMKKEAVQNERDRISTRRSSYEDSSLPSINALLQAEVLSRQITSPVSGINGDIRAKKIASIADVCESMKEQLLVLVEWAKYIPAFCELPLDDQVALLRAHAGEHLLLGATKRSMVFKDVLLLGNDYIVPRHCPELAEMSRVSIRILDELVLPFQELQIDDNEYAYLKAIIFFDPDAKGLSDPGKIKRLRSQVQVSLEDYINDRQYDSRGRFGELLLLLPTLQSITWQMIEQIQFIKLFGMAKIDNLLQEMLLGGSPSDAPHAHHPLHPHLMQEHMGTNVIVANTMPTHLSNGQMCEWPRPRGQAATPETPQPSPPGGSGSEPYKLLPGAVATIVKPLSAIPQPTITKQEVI
Sequence CTCATAAGAGACTTTGCCCTTTTTTTCTCT has a binding signal (log2 normalized intensity) of 3.96. AGACAGCCACTGTTTGACGACTGTCTGCCA gave a binding signal (log2 normalized intensity) of -1.15. Work on GTGTGTGTGTGTGTGTGGTGTGTGTGTGTG yielded a binding signal (log2 normalized intensity) of 3.59. ACCAGGGCTAGACCCGTCAGCCCTGGTCCA was tested, and the binding signal (log2 normalized intensity) was -1.1. In the case of CTTCGATCACCTCAAGAAAGAGGTGGTTCT, the binding signal (log2 normalized intensity) was -1.09. In the case of CCTCAAAGAGCATGGCGCCAGGGAGTGATT, the binding signal (log2 normalized intensity) was -0.487. Work on TTTGTGGGCCAAAAGCAGCCATTAAGAAGC yielded a binding signal (log2 normalized intensity) of -0.486. Sequence GCCCTTTGTATCTTTTAAGATACACTCTTT has a binding signal (log2 normalized intensity) of 2.22. With GAGGCACCCATCCCTTTGCAATAAAAGATT the binding signal (log2 normalized intensity) was 0.089. In the case of AATGACCTTTGTCCAGCTGTGCCGAGCCTG, the binding signal (log2 normalized intensity) was 4.02. With GCAGTGACCAAGGGTCAGTTTGAAATTAGG the binding signal (log2 normalized intensity) was 2.2. Sequence CCAAAGTCTATGTGTGCTTTCTTCATTAAC has a binding signal (log2 normalized intensity) of 1.5. Sequence AGGCCAATGAGGGAAGTTATTAACATCAAA has a binding signal (log2 normalized intensity) of -1.12. Work on GGGAACCGGCAAGTCTGAAATCTACAGGAC yielded a binding signal (log2 normalized intensity) of -1.02. GCTCCAGAGGAAGATATTATCTCTGTCTGT showed a binding signal (log2 normalized intensity) of -0.852. Sequence CTGAGCAGGAATGTTTCCTCTCCCAGCCCC has a binding signal (log2 normalized intensity) of 3.24. For GGGTTAAAAGCAAACCAAAAAGTTGGTTGG, the binding signal (log2 normalized intensity) was -0.748. Work on GCTAGGTGGCGGGCTGGCTCAGGACAGGTG yielded a binding signal (log2 normalized intensity) of 0.0816. GACCTCCACTTTGGAGGGGGAATTTATTTT showed a binding signal (log2 normalized intensity) of -1.03. Work on GTGGAAGGATCACCTGAGTCCAGAGGTCAA yielded a binding signal (log2 normalized intensity) of 4.66. In the case of TTCCTGTCACAAGAGATAAAGCTCTTTGTC, the binding signal (log2 normalized intensity) was -0.56. For AGTCAGTTGCATGCAACCTTTGTCCTCATT, the binding signal (log2 normalized intensity) was 5.64. Sequence GGGATCCAGGTGCAAAGTACTTCCGATCTC has a binding signal (log2 normalized intensity) of 0.39. AGCCAACCAGAGGCTGAAGTGAAGTTACAA showed a binding signal (log2 normalized intensity) of -0.787. TCTCCAGGGTCCTTGCCTTAAGAGCAGTCT gave a binding signal (log2 normalized intensity) of -0.46. AATTCATCTCTAAGCTACTGAAAATGACCT was tested, and the binding signal (log2 normalized intensity) was 3.39. In the case of TAAGATAAGGAGGTAGAGTCTAAGGCTAAA, the binding signal (log2 normalized intensity) was -1.02. With GCCTTGGGCAAGTTACTTAAGCCATCTGCT the binding signal (log2 normalized intensity) was -1.15. Work on TCTCCTGCATTCCTGTCCACCCTGAAAGAG yielded a binding signal (log2 normalized intensity) of -0.0187. ACAGTAGACTTTTTTTTTCTTAATTGCCCT was tested, and the binding signal (log2 normalized intensity) was 2.84. Work on TGGGGGAGGTAGGTAAGGACCAGATCATTC yielded a binding signal (log2 normalized intensity) of -1.05. With TAATGTGCCCAAAAGGACACAGGGTCTGTT the binding signal (log2 normalized intensity) was -1.13. For CCCACCCCCACGCCCCCCAGCGGAAGTCCA, the binding signal (log2 normalized intensity) was 6.97. Work on CTCTCAAAAATCTCACTCACCCTAAGCCCT yielded a binding signal (log2 normalized intensity) of 2.79. GCTTGAGCGAGACAGCGGGTGTTTCTGGGA was tested, and the binding signal (log2 normalized intensity) was 0.386. In the case of AAAAAGACGCGGTCTCAGTTAACGGGGACG, the binding signal (log2 normalized intensity) was -1.11. CAGAGAGATACTGAACCTTGCACTATTGAC gave a binding signal (log2 normalized intensity) of 2.89. For TTCCCCAGCGACTGAGCTGAGGTTAGAATC, the binding signal (log2 normalized intensity) was -0.674. CTGTTTTACTGGGGCCCATTGTATGAGGGT was tested, and the binding signal (log2 normalized intensity) was 1.39. In the case of GATCCAAAAGACCCAGGTGTGTTGCAACTT, the binding signal (log2 normalized intensity) was 0.84. With CTGCAGTCAGGGGTTAGGCCTGGAACCTGT the binding signal (log2 normalized intensity) was 0.864. In the case of ATCAAAGGTCAAAATATCTGATCGATATCC, the binding signal (log2 normalized intensity) was 2.68. Sequence GGCATATCTCTGTCCCTGATACCATTATCT has a binding signal (log2 normalized intensity) of 0.312. For TTTAGGAAGAGATCAAAGTTCTGTTTGTAT, the binding signal (log2 normalized intensity) was 2.65. For CAGCTGGTCACACTGCACCTGCCTGAACAA, the binding signal (log2 normalized intensity) was -1.2. GGAAGATAAGCTATTATTTACATTGTTGGG showed a binding signal (log2 normalized intensity) of 0.24. Work on CGGTCCTCGCTCGCCCGAGCGCTGCTTCTC yielded a binding signal (log2 normalized intensity) of -1.23. For TGAGACTCAAGGCAAGTTGCTTCCACCTAT, the binding signal (log2 normalized intensity) was -1.1. ATCTGGTGGTGGTTCTTGTTTCATTGCACA gave a binding signal (log2 normalized intensity) of 1.84. For CTTGGCCTGCATAGCACTTTCATAACTTCT, the binding signal (log2 normalized intensity) was 0.474. AGGTCAGAGTTGAACCCTTGGGGCTTTTGC showed a binding signal (log2 normalized intensity) of 1.98. With AGATACAGTTTGAAAAACACTGGATAAAGT the binding signal (log2 normalized intensity) was -0.736. ATACAGATTTCATCTAAGGACAAACTTTGT was tested, and the binding signal (log2 normalized intensity) was 1.84. Work on AATTGGGGGAGAGTTTAAGGTTGTACTTTG yielded a binding signal (log2 normalized intensity) of 3.4. Sequence CTACAGTCCTGCCACATCCCCCACACCGAG has a binding signal (log2 normalized intensity) of 4.36. For AGATGGAATGTTGTGTCTTCCAGTTCATTT, the binding signal (log2 normalized intensity) was 1.33. TTGCAGACCTTGGTCAAAGTGACACATTCC gave a binding signal (log2 normalized intensity) of -0.628. With GGGAAGGCAGGTCTCTCTCATTCACACCCT the binding signal (log2 normalized intensity) was -1.05. With GTTAAAGTTGCCTGATGACAACTGAATGTG the binding signal (log2 normalized intensity) was 0.26. Work on GTCATCAGATAGATGGTCAGTGAACTGTGG yielded a binding signal (log2 normalized intensity) of 1.65. In the case of TGGAATGCTTTTCTAGAACCAGGAATCCTA, the binding signal (log2 normalized intensity) was -1.02. In the case of TCTTGGACTCTTGGACTCCCTGAAGAAACA, the binding signal (log2 normalized intensity) was 3.82. In the case of AAGGGCTGAGGTTAAAGTCCACATTCTTTA, the binding signal (log2 normalized intensity) was 5.76. CAAGTTATCTCGGGGTGGCATGTATCTGAT gave a binding signal (log2 normalized intensity) of 1.6. For CTTGCTGCATTCCCCCACCTACTGTCTCCT, the binding signal (log2 normalized intensity) was 2.9. In the case of GTAACCTCAAAGGAGGTCAGAACTGTGGAC, the binding signal (log2 normalized intensity) was 1.22. For CTTCTTGGATGCCCTTCCCTAACCCTTCAA, the binding signal (log2 normalized intensity) was 2.5. GTGAGGGAGGAGACTTTGACCTCTGCTAGG showed a binding signal (log2 normalized intensity) of 5.43. For TCAGATGAACTTTGCCTTAGGCCATTGTCC, the binding signal (log2 normalized intensity) was 3.25. Work on TTCTTGGTGGAAGTGGTGATTTCGTTGAAA yielded a binding signal (log2 normalized intensity) of 0.929. TTGTGGAGGATGGGAAGTCCAAAGTCTGCA was tested, and the binding signal (log2 normalized intensity) was 4.39. Sequence AGATATCAGAAATGCATGAGTGACCTTTAT has a binding signal (log2 normalized intensity) of 4.97.
